# Source: the supplement of paper PMC11417369
# ± gives the standard deviation of the averaged measurements. The list shows a part of the results.
# System: PfAP2-LT AP2 domain (GST-tagged)
# Assay: gcPBM binding intensity (ln(normalized median fluorescence intensity)); higher = stronger DNA binding
# Outline: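 GST-fused DNA-binding domains of P. falciparum, expressed in E. coli, were applied at about 25 μg on average for 1 h to an Agilent 4 × 180k array of primer-extended double-stranded 36-bp intergenic genomic probes and negative controls. Binding intensity is the highest Masliner-normalised natural-log median intensity across replicate spots of either probe orientation, measured with Alexa488 anti-GST antibody and a 488 nm scan.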
row,Sequence,gcPBM binding intensity (ln)
1,AATTTAAAAAATAACAGTACATAAAATATATACATA [XGTACX_site7917],8.61 ± 0.42
2,AAAAATAAAAGGTGTGCACACAAAAATATATATATA [CACACA_site8507],9.66 ± 0.45
3,TATTGTTATTAAAAATGTACATATAAATTTCTTATT [XGTACX_site1409],8.43 ± 0.49
4,TGGCATTAAAATTTAGTGCATATATCTTAGCATGGG,8.66 ± 0.35
5,TGTGTATATTATATGTGTACATATCAATGTTTATAT [XGTACX_site1885],9.12 ± 0.4
6,TAATATTAAATAAATAAAATATATAATATATATATA [XGTACX_negctrl_site49],8.44 ± 0.4
7,TAATATATAACGTGCACACACACATCTACGTATGAA [CACACA_site5080],9.52 ± 0.33
8,AGTTTTATATTTCTGAGTACTTATGAATCTAGCTCG [XGTACX_site4330],8.72 ± 0.45
9,TTTTTTTTTTTTTTTACACACATTTTAATAATTTTA [CACACA_site1492],8.74 ± 0.43
10,ATTTTTTCTAAAAGTTGTACATTAAAACGTGTTCAC [XGTACX_site4803],8.57 ± 0.46
11,TTGTAAAAAATTCATACACACGTCTTATTTTTAAGA [CACACA_site8390],8.62 ± 0.41
12,TATTTATTCTCCAACACACACACATATATATATATA [CACACA_site2894],9.66 ± 0.2
13,TTATAGGTGCTTCGTAGTACATAAAAATAATATATA [XGTACX_site6979],8.54 ± 0.43
14,AAAATGAATTTAAAATGTACTTTTTCTAAAGAGTAA [XGTACX_site2337],8.21 ± 0.52
15,AAGACTCTTTGTCCTTGTACATATATTTTTATGTTT [XGTACX_site3711],8.94 ± 0.45
16,TTTATATAATATGAATGTACTTATATATTTATAGAC [XGTACX_site3261],8.49 ± 0.42
17,TATTTATACACGCACACACACTTATACATTTATATA [CACACA_site7543],9.64 ± 0.31
18,TTTCTTTTTTAGAGGTGTACACGTAGGCCTCTTGGA [XGTACX_site4760],8.44 ± 0.5
19,CACACTTTTTAAATTAACGCATTTCAAAAAAAATAT [CACACA_negctrl_site84],8.41 ± 0.46
20,TTAGATATTAATATATGTACATATTAATATATTTAC [XGTACX_site7119],8.68 ± 0.39
21,TATAATTTTTACTGGGTGCACTCGATATTTTAAATA,8.59 ± 0.49
22,TAAATGTAAAACGAAATGCACACTATGGAAAATATA [CACACA_site724],9.09 ± 0.39
23,ATTATTTTATATACATGTACATATTATATATAAAAG [XGTACX_site2735],8.51 ± 0.42

row,Sequence,gcPBM binding intensity (ln)
1,TATAAAATAAAAAATATATATATGTATATATATATA [TGCATGCA_negctrl_site163],8.9 ± 0.37
2,TATAAGTGCTCAACGGTGCATTTATAGAAGTTAAAC,8.83 ± 0.41
3,TCTTCCATTTTTATTACACACATAAATATGAAATCG [CACACA_site3471],8.82 ± 0.36
4,ACATTTTTGGTTTTAGTGCAATATGAATTATTTTAT,8.69 ± 0.33
5,CCTTTAAGCAAAAACACACACACATATATATATATA [CACACA_site348],9.945 ± 0.035
6,ATTATTATTTTACGTAGTACATATAATAAATATTTA [XGTACX_site8934],8.42 ± 0.55
7,GGAATATTATTTCAATGTACATTTTGAGATTAGAAT [XGTACX_site8187],8.62 ± 0.38
8,TATCCATATTTGTTCACACACACACGGATTTATATA [CACACA_site7649],9.59 ± 0.26
9,TTATTTCTAATTCGTTGTACAATATATAATATATAT [XGTACX_site5861],8.64 ± 0.49
10,TAGGTGTTAAAAAATACACACACAAAAAAAAAAAAA [CACACA_site7927],9.22 ± 0.61
11,TTGATAGACACATGCACACATGCAATACTTTATTCA [CACACA_site3000],9.06 ± 0.39
12,ATATAAAGTATGTTAGTGCACTTTTTTTTTTTTTTT [GTGCAC_site9419],8.77 ± 0.44
13,GTAATACACATATAATGTACTCATAAATATATTTAT [XGTACX_site4041],8.88 ± 0.33
14,TCATAGGAGAACTTTTGTACAGATTTTTCTTTTTTT [XGTACX_site2853],8.52 ± 0.56
15,ATGTTAACTAAATGTACACACCTATGTTGATGTAAC [CACACA_site5073],9.11 ± 0.31
16,TATATATATAAAATATGTACATAAAATTATTTATTT [XGTACX_site7666],8.53 ± 0.47
17,AAAGTTTAAATGAGAAGTACAAATTTTTGTTTTTAT [XGTACX_site1844],8.46 ± 0.57
18,GTGGTTGTAATGGTGGTGCATATTGTATATTATGTT,9.515 ± 0.078
19,AATTTTATATATATATGTACATATTTATATGCTTAT [XGTACX_site8180],9.05 ± 0.46
20,AATATAAGTGTACATACACACTTTACAATATCATAT [CACACA_site5634],8.97 ± 0.4
21,ACATACATACCCCCACGTACGTACCGAAACACCACC [XGTACX_site1982],9.74 ± 0.028
22,TTTCTATATCTTTCAACACACAAATTTTTTTTTCCA [CACACA_site108],8.6 ± 0.57
